Results as given in PubChem BioAssay AID485281 (National Center for Advancing Translational Sciences (NCATS), 2010).
Values joined by “and” are separate entries in the source; they are usually repeats but may differ in a detail not shown here. Identical values can stand only once. In all, about 350,000 compounds went through this assay and about 260 (0.074%) were called active. The inconclusive results got no clear call from the source; some entries with a clear call stand among them for comparison. Calls follow the shape of the dose curve; as a rule, active = well fitted inhibition curve with a large enough effect; inconclusive = small, poorly fitted or top-dose-only effect; inactive = no such curve, though single readings can be large or run the other way. Potencies of inconclusive entries are doubtful fits and often do not repeat.

molecular target: Ferritin light chain (Equus caballus) (UniProt P02791); experiment: qHTS Assay for Identification of Novel General Anesthetics; conditions: apoferritin/1-aminoanthracene competitive binding, fluorescence; series mostly up to 77.5 µM; also: nearly all actives have a fitted effect of over 20% in size
Chain of UniProt P02791 (P02791 whole entry, looked up): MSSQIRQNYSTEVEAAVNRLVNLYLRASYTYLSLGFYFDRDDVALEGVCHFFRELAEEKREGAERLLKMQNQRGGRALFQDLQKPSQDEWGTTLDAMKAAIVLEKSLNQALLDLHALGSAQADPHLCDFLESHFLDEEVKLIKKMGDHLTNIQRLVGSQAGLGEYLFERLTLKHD
How it was run: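 Horse-spleen apoferritin (10 uM) was mixed with 50% saturated 1-aminoanthracene in PBS, exposed to compounds for 10 min at room temperature, and read for fluorescence (ex 380 nm, em 535 nm). Competitive displacement was fitted with a four-parameter Hill equation.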
Potency is read from the fitted curve at half-maximal effect; tags tell the direction and shape of the fitted curve.

| SMILES | Potency |
| --- | --- |
| CCOC(=O)/C=C1\SCC(=O)N1CC(=O)NC12CC3CC(CC(C3)C1)C2 | inconclusive: 31.6 µM [inhibitor, partial curve] |
| Cc1nn(Cc2ccccc2)c(Cl)c1/C=C/C(=O)OCC(=O)N1CCCC1=O | inconclusive: 39.8 µM [inhibitor, single point] |
| CC(=O)Nc1ccc(Nc2ncnc3sc4c(c23)CCCC4)cc1 | inactive |
| O=C(/C(=C/O)N=Nc1cccc(C(F)(F)F)c1)c1ccccc1 | inconclusive: 10 µM [inhibitor, partial curve] |
| CCc1c(C)sc(NC(=O)c2cc(CC(C)C)on2)c1C#N | inconclusive: 39.8 µM [inhibitor, partial curve] |
| Cc1cnc(NC(=O)CSc2ccccc2)s1 | inconclusive: 50.1 µM [inhibitor, single point] |
| CSc1nc(N)nc(SCC(=O)Nc2ccc(Cl)cc2)c1C#N | inconclusive: 6.31 µM [inhibitor, full curve, poor fit] |
| CC1=C(C#N)C(c2ccc(O)cc2)C2=C(CCCC2=O)N1 (configuration not stated) | inactive |
| Cc1ccc(-c2ccc(/C=N/NC(=O)CN3CCCC3)o2)cc1Cl | active: 17.8 µM |
| CC(NC(=O)CSc1nnc(CC(=O)Nc2ccc(Cl)c(Cl)c2)n1C)c1ccccc1 (configuration not stated) | inconclusive: 31.6 µM [inhibitor, partial curve] |
| CC(C)(C)OC(=O)NCCc1nnc(SCc2c(Cl)cccc2Cl)o1 | inconclusive: 20 µM [inhibitor, partial curve] |
| CCc1nc2ccccc2c(C(=O)Nc2ccc(F)cc2)c1C | inactive |
| CCC(Sc1nnc2c3ccccc3n(C)c2n1)C(=O)Nc1nnc(C(C)C)s1 (configuration not stated) | inconclusive: 25.1 µM [inhibitor, partial curve] |
| CCC(=O)CCC(=O)c1ccc2ccccc2c1 | inconclusive: 28.2 µM [inhibitor, partial curve] |
| O=C(O/N=C1/CCCc2occc21)c1ccccc1 | inconclusive: 39.8 µM [inhibitor, partial curve] |
| CN(C)CC(=O)c1ccc(-c2ccccc2)cc1 | inconclusive: 39.8 µM [inhibitor, partial curve] |
| O=C1NC(=Nc2ccc(F)cc2)CS1 | inactive |
| CCN(CC)S(=O)(=O)c1ccc(Cl)c(C(=O)OCC(=O)c2c(N)n(C)c(=O)n(C)c2=O)c1 | inconclusive: 50.1 µM [inhibitor, single point] |
| COc1ccc(C(NC(=O)c2ccc(F)cc2)c2ccccc2)cc1 (configuration not stated) | inconclusive: 31.6 µM [inhibitor, partial curve] |
| CCOC(=O)c1sc(N/N=C/c2cc(Br)c(O)c(OC)c2)nc1C | inconclusive: 50.1 µM [inhibitor, single point] |
| N/C(=N\OC(=O)CCCc1ccccc1)c1ccc([N+](=O)[O-])cc1 | inactive |
| O=C(CC1C(=O)NCCN1C/C=C/c1ccccc1)NCCCC1CCCC1 (configuration not stated) | inconclusive: 28.2 µM [inhibitor, partial curve] |
| COc1ccc(C)cc1Nc1n[n+](-c2ccccc2)c(-c2ccc(OC)c(OC)c2OC)s1 | inconclusive: 39.8 µM [inhibitor, single point] |
| Nc1ccc2nc(-c3ccccn3)[nH]c2c1 | inactive |

| SMILES | Potency |
| --- | --- |
| CC1CCN(CCOCCOc2ccc(Cl)cc2Br)CC1 | inactive |
| Cn1c(=O)cc(SCC(=O)N2CCN(c3ccccc3)CC2)c2ccccc21 | inconclusive: 14.1 µM [inhibitor, partial curve] |
| CC1CCCCN1C(=O)COc1ccccc1F (configuration not stated) | inconclusive: 15.8 µM [inhibitor, partial curve] |
| COc1cc(/C=C2\SC(=S)N(C(C(=O)O)c3ccccc3)C2=O)cc(OC)c1OC (configuration not stated) | inactive |
| O=C(Nc1ccc2c(c1)OCO2)N1CCN(c2cccc(C(F)(F)F)c2)CC1 | inactive |
| COC(=O)CCC(=O)Nc1ccc(Cl)c(Cl)c1 | inconclusive: 28.2 µM [inhibitor, partial curve] |
| CC1CCN(C(=O)C(C)Sc2nc(-c3ccccc3)cc(C(F)(F)F)n2)CC1 (configuration not stated) | inconclusive: 11.2 µM [inhibitor, partial curve] and inconclusive: 7.94 µM [inhibitor, partial curve] |
| COc1ccc(OC)c(NC(=O)c2c(C)oc3ncnc(N4CCOCC4)c23)c1 | inconclusive: 3.16 µM [inhibitor, full curve] |
| COc1cc(Cl)ccc1OCc1cc(C(=O)N2CCCC(OC)C2)no1 (configuration not stated) | inconclusive: 20 µM [inhibitor, partial curve] |
| COc1ccc(/C=C(/NC(=O)c2cccc([N+](=O)[O-])c2)C(=O)O)cc1OC | inconclusive: 56.2 µM [inhibitor, partial curve] |
| O=C(NCCc1ccccc1)c1ccc(Br)o1 | inactive |
| CCOC(=O)c1cc2cc(-c3c(C(=O)OCC)oc4cc(O)cc(O)c4c3=O)ccc2o1 | inconclusive: 39.8 µM [inhibitor, partial curve] |
| CC1(C)C(=O)OC(C(=O)c2ccc(Cl)cc2)C(C)(C)C1=O (configuration not stated) | inconclusive: 10 µM [inhibitor, partial curve] |
| CCCCNC(=O)c1sc2ncnc(N3CCc4ccccc4C3)c2c1C | inconclusive: 8.91 µM [inhibitor, full curve, poor fit] |
| Cc1ccc(-c2cc(C(=O)NC3=NCCS3)c3cc(Br)ccc3n2)o1 | inactive |
| CCN(CC)c1ccc(NC(=S)NC(=O)C2CCC2)cc1 | inactive |
| NSc1nc(N)c2nc(-c3ccccc3)c(-c3ccccc3)nc2n1 | inactive |
| O=C(NCc1ccccc1)/C(=C/c1cccc([N+](=O)[O-])c1)NC(=O)c1ccco1 | inactive |
| CCCCn1cnc2c(cnn2-c2ccc(Cl)cc2)c1=O | inactive |
| Cc1nc(-c2ccc(F)cc2)sc1CCNC(=O)c1ccc(C(C)(C)C)cc1 | inactive |
| COC(=O)c1cc(NC(=O)Cc2ccccc2[N+](=O)[O-])ccc1Cl | inconclusive: 39.8 µM [inhibitor, partial curve] |
| O=C(Oc1ccc2ccccc2c1Br)N1CCCCCC1 | inconclusive: 3.55 µM [inhibitor, partial curve, poor fit] |
| Cc1ccc(C(=O)C(C)OC(=O)Cn2[nH]c(=O)c3ccccc3c2=O)cc1 (configuration not stated) | inconclusive: 35.5 µM [inhibitor, single point] |
| N/C(=N\OC(=O)CCC1CCCCC1)c1ccc([N+](=O)[O-])cc1 | inconclusive: 22.4 µM [inhibitor, partial curve] |

| SMILES | Potency |
| --- | --- |
| O=C(c1ccc(Br)o1)N1CCC(Cc2ccccc2)CC1 | inactive |
| CC(=O)c1cccc(NC(=O)CSc2ccc(-c3ccco3)nn2)c1 | inconclusive: 35.5 µM [inhibitor, single point] |
| Cc1ccc(S(=O)(=O)Nc2ccc(N3CCCCC3)cc2)cc1 | inconclusive: 28.2 µM [inhibitor, partial curve] |
| O=C(c1csc2c1CCCC2)N1CCCCC1 | inconclusive: 35.5 µM [inhibitor, single point] |
| COC(=O)c1cc(S(=O)(=O)NCC2CCN(Cc3ccc(Cl)cc3)CC2)c[nH]1 | inactive |
| Clc1ccc(-c2nnc(-c3ccco3)nc2N2CCCCC2)cc1 | inactive |
| CN(C)c1ccc(C(=S)N2CCN(c3ccccc3)CC2)cc1 | inconclusive: 35.5 µM [inhibitor, partial curve] |
| COc1ccc(C(=O)Nc2nc3c(s2)Cc2cc(OC)ccc2-3)cc1 | inconclusive: 14.1 µM [inhibitor, partial curve] |
| O=Nc1ccc(NOC(=O)c2ccccc2Br)cc1 | inactive |
| CCCc1nnc(NC(=O)Nc2ccc(OC)cc2)s1 | inconclusive: 35.5 µM [inhibitor, single point] |
| Cc1c(CN2CCC(CO)(Cc3cccc(C(F)(F)F)c3)CC2)c2ccccc2n1C | inconclusive: 22.4 µM [inhibitor, partial curve] |
| CCCCn1c(SCC(=O)N2CCN(c3ccccc3)CC2)nc2ccsc2c1=O | inconclusive: 3.16 µM [inhibitor, full curve] |
| Cc1ccc(/C(C#N)=C\c2cn(C)c3ccccc23)cc1 | inactive |
| Cc1ccc(NC(=O)c2ccc([N+](=O)[O-])o2)cc1S(=O)(=O)N1CCOCC1 | inconclusive: 39.8 µM [inhibitor, single point] |
| COc1ccccc1N1CCN(CCCn2c(=S)[nH]c3ccccc3c2=O)CC1 | inactive |
| CCc1cccc(C)c1NC(=O)C(CC)Sc1nncn2c1cc1occc12 (configuration not stated) | inconclusive: 31.6 µM [inhibitor, partial curve] |
| COc1ccc(-c2nn(CC(=O)Nc3ccc(Cl)c(Cl)c3)c(=O)c3ccccc23)cc1 | inconclusive: 11.2 µM [inhibitor, partial curve] |
| CS(=O)(=O)N1CCN=C1SCc1ccc([N+](=O)[O-])cc1 | inconclusive: 28.2 µM [inhibitor, single point] |
| COCCSc1nnc(NC(=O)CSc2ccccc2)s1 | inconclusive: 12.6 µM [inhibitor, partial curve] |
| CCOc1ccc(N2C(=O)C3C(C2=O)C3(c2ccccc2)c2ccccc2)cc1 (configuration not stated) | inactive |
| O=C(COC(=O)Cc1ccc(Br)cc1)NC1CCCCCC1 | inconclusive: 28.2 µM [inhibitor, partial curve] |
| CC(NC(=O)Cn1cnnn1)C12CC3CC(CC(C3)C1)C2 (configuration not stated) | inconclusive: 25.1 µM [inhibitor, partial curve] |
| Cc1ccc(CNc2ccc3c(c2)ncn3C)cc1 | inactive |
| CCN1c2ccccc2-c2nc(SCC(=O)Nc3cc(F)ccc3F)ncc2S1(=O)=O | inconclusive: 0.891 µM [inhibitor, full curve, poor fit] |
